{"source": "the supplement of paper PMC8728848", "binders": {"B1": {"name": "LSL-150 (Laetiporus sulphureus), Q7Z8V1 (protein)", "chain": "MTDIYIPPEGLYFRLLGFASRQVIFARNSPSPDVGLSPVNDQATDQYFSLIYGTGEHAGLYAIKSKATGKVLFSRRPAEPYVGQIDGDGRYPDNWFKIEPGKTYLSKYFRLVQPSTGTALVSRTHLQPYFWNHPQTEVFDDQYFTFLFEDHHHHHH"}}, "experiment_in_all_cases": "glycan array binding signal (z-score within array); higher = stronger binding", "conditions_in_all_cases": "glycan notation: IUPAC condensed, linker removed", "key": {"GalNAc(b1-4)GlcNAc": {"biological_target": "GalNAc(b1-4)GlcNAc", "in_short": "(§1)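 Arrays were curated from the Consortium for Functional Glycomics database, 3228 in total, and kept only where the protein sequence was available. Binding is expressed as a within-array Z-score. This score was averaged across arrays of the same protein sequence at different concentrations or buffers and across linkers, and negative values can be read as non-binding.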"}, "[1]": {"biological_target": "GalNAc(b1-4)GlcNAc(b1-2)Man", "in_short": "as §1"}, "[2]": {"biological_target": "GalNAc(b1-4)GlcNAc(b1-2)Man(a1-3)[GalNAc(b1-4)GlcNAc(b1-2)Man(a1-6)]Man(b1-4)GlcNAc(b1-4)GlcNAc", "in_short": "as §1"}, "[3]": {"biological_target": "GalNAc(b1-4)GlcNAc(b1-3)GalNAc(b1-4)GlcNAc", "in_short": "as §1"}, "GalNAc(b1-4)GlcNAc6S": {"biological_target": "GalNAc(b1-4)GlcNAc6S", "in_short": "as §1"}, "GalNAc(b1-6)GalNAc": {"biological_target": "GalNAc(b1-6)GalNAc", "in_short": "as §1"}, "GalNAc3S(b1-4)GlcNAc": {"biological_target": "GalNAc3S(b1-4)GlcNAc", "in_short": "as §1"}, "GalNAc3S(b1-4)GlcNAc3S": {"biological_target": "GalNAc3S(b1-4)GlcNAc3S", "in_short": "as §1"}, "[4]": {"biological_target": "GalNAc3S(b1-4)[Fuc(a1-3)]GlcNAc", "in_short": "as §1"}, "GalNAc4S6S(b1-4)GlcNAc": {"biological_target": "GalNAc4S6S(b1-4)GlcNAc", "in_short": "as §1"}, "GalNAc6S(b1-4)GlcNAc": {"biological_target": "GalNAc6S(b1-4)GlcNAc", "in_short": "as §1"}, "Glc(a1-4)Glc": {"biological_target": "Glc(a1-4)Glc", "in_short": "as §1"}, "[5]": {"biological_target": "Glc(a1-4)Glc(a1-4)Glc(a1-4)Glc", "in_short": "as §1"}, "Glc(a1-6)Glc(a1-6)Glc": {"biological_target": "Glc(a1-6)Glc(a1-6)Glc", "in_short": "as §1"}, "[6]": {"biological_target": "Glc(a1-6)Glc(a1-6)Glc(a1-6)Glc", "in_short": "as §1"}, "Glc(b1-4)Glc": {"biological_target": "Glc(b1-4)Glc", "in_short": "as §1"}, "Glc(b1-6)Glc": {"biological_target": "Glc(b1-6)Glc", "in_short": "as §1"}, "GlcA(b1-3)Gal": {"biological_target": "GlcA(b1-3)Gal", "in_short": "as §1"}, "GlcA(b1-3)GlcNAc": {"biological_target": "GlcA(b1-3)GlcNAc", "in_short": "as §1"}, "GlcA(b1-6)Gal": {"biological_target": "GlcA(b1-6)Gal", "in_short": "as §1"}, "[7]": {"biological_target": "GlcA3S(b1-3)Gal(b1-4)GlcNAc(b1-2)Man", "in_short": "as §1"}, "[8]": {"biological_target": "GlcA3S(b1-3)Gal(b1-4)GlcNAc(b1-3)Gal(b1-4)Glc", "in_short": "as §1"}, "[9]": {"biological_target": "GlcNAc(a1-3)Gal(b1-4)GlcNAc", "in_short": "as §1"}, "[10]": {"biological_target": "GlcNAc(a1-4)Gal(b1-3)GlcNAc", "in_short": "as §1"}, "[11]": {"biological_target": "GlcNAc(a1-4)Gal(b1-4)GalNAc", "in_short": "as §1"}, "[12]": {"biological_target": "GlcNAc(a1-4)Gal(b1-4)GlcNAc", "in_short": "as §1"}, "[13]": {"biological_target": "GlcNAc(a1-4)Gal(b1-4)GlcNAc(b1-3)Gal(b1-4)Glc", "in_short": "as §1"}, "[14]": {"biological_target": "GlcNAc(a1-4)Gal(b1-4)GlcNAc(b1-3)Gal(b1-4)GlcNAc", "in_short": "as §1"}, "[15]": {"biological_target": "GlcNAc(a1-4)Gal(b1-4)GlcNAc(b1-3)Gal(b1-4)GlcNAc(b1-3)Gal(b1-4)GlcNAc", "in_short": "as §1"}, "[16]": {"biological_target": "GlcNAc(a1-4)Gal(b1-4)GlcNAc(b1-3)Gal(b1-4)[Fuc(a1-3)]GlcNAc(b1-3)Gal(b1-4)[Fuc(a1-3)]GlcNAc", "in_short": "as §1"}, "[17]": {"biological_target": "GlcNAc(a1-6)Gal(b1-4)GlcNAc", "in_short": "as §1"}, "[18]": {"biological_target": "GlcNAc(b1-2)Gal(b1-3)GalNAc", "in_short": "as §1"}, "[19]": {"biological_target": "GlcNAc(b1-2)Man(a1-3)[GlcNAc(b1-2)Man(a1-6)]Man(b1-4)GlcNAc(b1-4)GlcNAc", "in_short": "as §1"}, "[20]": {"biological_target": "GlcNAc(b1-2)Man(a1-3)[GlcNAc(b1-2)Man(a1-6)]Man(b1-4)GlcNAc(b1-4)[Fuc(a1-6)]GlcNAc", "in_short": "as §1"}, "[21]": {"biological_target": "GlcNAc(b1-2)Man(a1-3)[GlcNAc(b1-4)][GlcNAc(b1-2)Man(a1-6)]Man(b1-4)GlcNAc(b1-4)GlcNAc", "in_short": "as §1"}, "[22]": {"biological_target": "GlcNAc(b1-2)Man(a1-3)[GlcNAc(b1-4)][GlcNAc(b1-2)Man(a1-6)]Man(b1-4)GlcNAc(b1-4)[Fuc(a1-6)]GlcNAc", "in_short": "as §1"}, "[23]": {"biological_target": "GlcNAc(b1-2)[GlcNAc(b1-4)]Man(a1-3)[GlcNAc(b1-2)Man(a1-6)]Man(b1-4)GlcNAc(b1-4)GlcNAc", "in_short": "as §1"}, "[24]": {"biological_target": "GlcNAc(b1-2)[GlcNAc(b1-4)]Man(a1-3)[GlcNAc(b1-4)][GlcNAc(b1-2)Man(a1-6)]Man(b1-4)GlcNAc(b1-4)GlcNAc", "in_short": "as §1"}, "[25]": {"biological_target": "GlcNAc(b1-2)[GlcNAc(b1-4)]Man(a1-3)[GlcNAc(b1-4)][GlcNAc(b1-2)[GlcNAc(b1-6)]Man(a1-6)]Man(b1-4)GlcNAc(b1-4)GlcNAc", "in_short": "as §1"}, "[26]": {"biological_target": "GlcNAc(b1-2)[GlcNAc(b1-4)]Man(a1-3)[GlcNAc(b1-4)][GlcNAc(b1-2)[GlcNAc(b1-6)]Man(a1-6)]Man(b1-4)GlcNAc(b1-4)[Fuc(a1-6)]GlcNAc", "in_short": "as §1"}, "[27]": {"biological_target": "GlcNAc(b1-2)[GlcNAc(b1-6)]Man(a1-6)[GlcNAc(b1-2)Man(a1-3)]Man(b1-4)GlcNAc(b1-4)GlcNAc", "in_short": "as §1"}, "[28]": {"biological_target": "GlcNAc(b1-2)[GlcNAc(b1-6)]Man(a1-6)[GlcNAc(b1-2)Man(a1-3)]Man(b1-4)GlcNAc(b1-4)[Fuc(a1-6)]GlcNAc", "in_short": "as §1"}, "[29]": {"biological_target": "GlcNAc(b1-2)[GlcNAc(b1-6)]Man(a1-6)[GlcNAc(b1-4)][GlcNAc(b1-2)Man(a1-3)]Man(b1-4)GlcNAc(b1-4)GlcNAc", "in_short": "as §1"}, "GlcNAc(b1-3)Fuc": {"biological_target": "GlcNAc(b1-3)Fuc", "in_short": "as §1"}, "GlcNAc(b1-3)Gal": {"biological_target": "GlcNAc(b1-3)Gal", "in_short": "as §1"}}, "note": "The list shows a part of the results."}
{"binder": "B1", "values": [{"measurement": "glycan array binding signal (z-score)", "setting": "GalNAc(b1-4)GlcNAc", "result": -0.197}, {"measurement": "glycan array binding signal (z-score)", "setting": "[1]", "result": -0.205}, {"measurement": "glycan array binding signal (z-score)", "setting": "[2]", "result": -0.195}, {"measurement": "glycan array binding signal (z-score)", "setting": "[3]", "result": -0.202}, {"measurement": "glycan array binding signal (z-score)", "setting": "GalNAc(b1-4)GlcNAc6S", "result": -0.203}, {"measurement": "glycan array binding signal (z-score)", "setting": "GalNAc(b1-6)GalNAc", "result": -0.195}, {"measurement": "glycan array binding signal (z-score)", "setting": "GalNAc3S(b1-4)GlcNAc", "result": -0.201}, {"measurement": "glycan array binding signal (z-score)", "setting": "GalNAc3S(b1-4)GlcNAc3S", "result": -0.206}, {"measurement": "glycan array binding signal (z-score)", "setting": "[4]", "result": -0.203}, {"measurement": "glycan array binding signal (z-score)", "setting": "GalNAc4S6S(b1-4)GlcNAc", "result": -0.204}, {"measurement": "glycan array binding signal (z-score)", "setting": "GalNAc6S(b1-4)GlcNAc", "result": -0.211}, {"measurement": "glycan array binding signal (z-score)", "setting": "Glc(a1-4)Glc", "result": -0.208}, {"measurement": "glycan array binding signal (z-score)", "setting": "[5]", "result": -0.199}, {"measurement": "glycan array binding signal (z-score)", "setting": "Glc(a1-6)Glc(a1-6)Glc", "result": -0.201}, {"measurement": "glycan array binding signal (z-score)", "setting": "[6]", "result": -0.207}, {"measurement": "glycan array binding signal (z-score)", "setting": "Glc(b1-4)Glc", "result": -0.205}, {"measurement": "glycan array binding signal (z-score)", "setting": "Glc(b1-6)Glc", "result": -0.205}, {"measurement": "glycan array binding signal (z-score)", "setting": "GlcA(b1-3)Gal", "result": -0.209}, {"measurement": "glycan array binding signal (z-score)", "setting": "GlcA(b1-3)GlcNAc", "result": -0.206}, {"measurement": "glycan array binding signal (z-score)", "setting": "GlcA(b1-6)Gal", "result": -0.204}, {"measurement": "glycan array binding signal (z-score)", "setting": "[7]", "result": -0.206}, {"measurement": "glycan array binding signal (z-score)", "setting": "[8]", "result": -0.122}, {"measurement": "glycan array binding signal (z-score)", "setting": "[9]", "result": -0.2}, {"measurement": "glycan array binding signal (z-score)", "setting": "[10]", "result": -0.2}, {"measurement": "glycan array binding signal (z-score)", "setting": "[11]", "result": -0.207}, {"measurement": "glycan array binding signal (z-score)", "setting": "[12]", "result": -0.201}, {"measurement": "glycan array binding signal (z-score)", "setting": "[13]", "result": -0.202}, {"measurement": "glycan array binding signal (z-score)", "setting": "[14]", "result": -0.043}, {"measurement": "glycan array binding signal (z-score)", "setting": "[15]", "result": 0.458}, {"measurement": "glycan array binding signal (z-score)", "setting": "[16]", "result": -0.199}, {"measurement": "glycan array binding signal (z-score)", "setting": "[17]", "result": -0.215}, {"measurement": "glycan array binding signal (z-score)", "setting": "[18]", "result": -0.203}, {"measurement": "glycan array binding signal (z-score)", "setting": "[19]", "result": -0.205}, {"measurement": "glycan array binding signal (z-score)", "setting": "[20]", "result": -0.199}, {"measurement": "glycan array binding signal (z-score)", "setting": "[21]", "result": -0.198}, {"measurement": "glycan array binding signal (z-score)", "setting": "[22]", "result": -0.207}, {"measurement": "glycan array binding signal (z-score)", "setting": "[23]", "result": -0.209}, {"measurement": "glycan array binding signal (z-score)", "setting": "[24]", "result": -0.202}, {"measurement": "glycan array binding signal (z-score)", "setting": "[25]", "result": -0.212}, {"measurement": "glycan array binding signal (z-score)", "setting": "[26]", "result": -0.208}, {"measurement": "glycan array binding signal (z-score)", "setting": "[27]", "result": -0.201}, {"measurement": "glycan array binding signal (z-score)", "setting": "[28]", "result": -0.208}, {"measurement": "glycan array binding signal (z-score)", "setting": "[29]", "result": -0.206}, {"measurement": "glycan array binding signal (z-score)", "setting": "GlcNAc(b1-3)Fuc", "result": -0.204}, {"measurement": "glycan array binding signal (z-score)", "setting": "GlcNAc(b1-3)Gal", "result": -0.195}]}
